Source: PubChem BioAssay AID588855 (National Center for Advancing Translational Sciences (NCATS), 2011)
About 5,000 (1.2%) of roughly 410,000 compounds were called active. Inconclusive results, whose numbers are uncertain, are shown with a selection of clear calls. Calls follow the shape of the dose curve; as a rule, active = well fitted inhibition curve with a large enough effect; inconclusive = small, poorly fitted or top-dose-only effect; inactive = no such curve, though single readings can be large or run the other way. Potencies of inconclusive entries are doubtful fits and often do not repeat.

experiment: qHTS for Inhibitors of TGF-b; details: HepG2 CAGA-GFP TGF-b/SMAD3 reporter, GFP fluorescence, 18 h, TGF-beta stimulated, 500 pg/mL final; series mostly up to 46.1 µM; activity, negative = inhibition: at the top concentration; also: nearly all actives have a fitted effect of over 65% in size
Procedure, shortened: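 Smad-responsive CAGA-GFP expression was quantified in HEPG2 cells exposed to compounds and 500 pg/mL final TGF-beta for 18 h at 37 degrees C; unstimulated wells defined full inhibition.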
% is scaled to controls: 0 for no effect and ±100 for the full control effect; potency is read from the fitted curve at half-maximal effect; tags tell the direction and shape of the fitted curve.

Row | SMILES | Potency | activity, negative = inhibition
1 | C/C(=N\Nc1c([N+](=O)[O-])c(C)nn1C)c1ccc(F)cc1F | inconclusive: 6.31 µM [inhibitor, single point] | 
2 | Cc1ccc(Nc2ccc(C(N)=O)cc2[N+](=O)[O-])cc1C | inconclusive: 31.6 µM [inhibitor, single point] | 
3 | Cc1ccc(-n2ncc(C(=O)NCc3ccco3)c2C2CCN(C(=O)OC(C)(C)C)CC2)cc1C |  | inactive: -47.4%
4 | O=C(C1=C(O)C(=O)N(CC2CCCO2)C1c1ccc(Cl)cc1Cl)c1ccco1 (stereo not given) |  | inactive: 9.88%
5 | Cn1c(=O)c2cc(NC(=O)Cc3ccccc3F)ccc2n1-c1ccc(C(C)(C)C)cc1 | inconclusive: 35.5 µM [inhibitor, single point] | 
6 | C=CCN1C=CC(=O)[C@@H](OC(=O)Nc2ccc(Br)cc2)[C@H]1c1ccccc1Br | inconclusive: 20 µM [inhibitor, single point] | 
7 | CCc1ccccc1N(C)C(=O)C1CCCN(c2ncnc3c2nc2n3CCCCC2)C1 (stereo not given) | inconclusive: 35.5 µM [inhibitor, single point] | 
8 | O=C(CSc1nc(-c2cccc(F)c2)[nH]c1-c1ccccc1)Nc1ccc2c(c1)OCO2 | inconclusive: 22.4 µM [inhibitor, single point] | 
9 | CCN1CCN(C(=S)Nc2ccc(Cl)c(Cl)c2)CC1 | inconclusive: 4.47 µM [inhibitor, single point] | 
10 | CCCc1cc(=O)[nH]c(SCC(=O)Nc2cc(S(=O)(=O)N3CCCCC3)ccc2C)n1 | inconclusive: 10 µM [inhibitor, partial curve, poor fit] | 
11 | O=C(CSc1ccc(-c2ccccn2)nn1)Nc1ccccc1 | inconclusive: 35.5 µM [inhibitor, single point] | 
12 | Cc1oc(-c2cccc(Cl)c2)nc1CN(C)C1CCOC1 (stereo not given) | inconclusive: 0.631 µM [inhibitor, full curve, poor fit] | 
13 | CN1CCN(C(=O)C2=C[C@H](c3ccc(C(F)(F)F)cc3)C[C@H](OCc3ccc(CO)cc3)O2)CC1 |  | inactive: -10.4%
14 | CCOc1ccc(S(=O)(=O)N2CCN(C(=O)Cc3ccc(S(=O)(=O)N4CCOCC4)s3)CC2)cc1 | inconclusive: 35.5 µM [inhibitor, single point] | 
15 | NC(=O)c1cc(S(=O)(=O)N2CCN(c3cccc(C(F)(F)F)c3)CC2)cs1 | inconclusive: 0.126 µM [inhibitor, full curve, poor fit] | 
16 | CCC1=C/C(=C/c2sc3ccccc3[n+]2CC)CC(C)(C)C1 | inconclusive: 17.8 µM [inhibitor, single point] | 
17 | COc1cc(NC(=O)CSc2c3c(nc4ccccc24)CCC3)cc(OC)c1OC | inconclusive: 35.5 µM [inhibitor, single point] | 
18 | O=[N+]([O-])c1ccc(/C=[N+](\[O-])CCO)o1 | inconclusive: 28.2 µM [inhibitor, single point] | 
19 | NC(=O)C1CCCN(C(=O)c2cccc(S(=O)(=O)N3CCCCCC3)c2)C1 (stereo not given) |  | inactive: -12%
20 | COc1ccc(Nc2nc(C)cc(=O)[nH]2)cc1 |  | inactive: 15.1%
21 | Cc1ccc2cccc(NC(=S)NC(=O)c3ccn(C)n3)c2n1 |  | inactive: -26.8%
22 | Cc1noc(/C=C/c2ccco2)c1S(=O)(=O)N1CCC(C(=O)N(C)Cc2ccccc2)CC1 | inconclusive: 11.2 µM [inhibitor, partial curve, poor fit] | 
23 | Cc1ccc(S(=O)(=O)N2CCOCC2)cc1C(=O)N1c2ccccc2Sc2ccccc21 | inconclusive: 35.5 µM [inhibitor, single point] | 
24 | COC(=O)C(C)N(C(=O)c1ccc(Cl)cc1)c1c(C)cccc1C (stereo not given) | inconclusive: 2.24 µM [inhibitor, partial curve, poor fit] | 

Row | SMILES | Potency | activity, negative = inhibition
25 | CNc1c(Br)cc(/C=C2\C=Cc3ccccc32)cc1Br | inconclusive: 12.6 µM [inhibitor, single point] | 
26 | CCCCC(=O)Nc1nc2ccc(C(=O)OC)cc2s1 |  | inactive: -0.0028%
27 | O=C(CSc1nnc(NCc2ccccc2)s1)N1CCOCC1 | inconclusive: 5.62 µM [inhibitor, single point] | 
28 | Cc1cc(C)c2c(N)c(C(=O)NCc3ccco3)sc2n1 | inconclusive: 22.4 µM [inhibitor, single point] | 
29 | CCN(CC)S(=O)(=O)c1ccc(C(=O)NCCSc2c(-c3ccccc3)[nH]c3ccccc23)cc1 | inconclusive: 3.98 µM [inhibitor, full curve] | 
30 | O=C1CCCc2c1[nH]c1c(Br)cccc21 | inconclusive: 12.6 µM [inhibitor, single point] | 
31 | CCN1C(=O)C(CC(=O)Nc2ccc(OC)cc2)N(Cc2ccc(OC)c(OC)c2)C1=S (stereo not given) |  | inactive: 2.82%
32 | CC[C@]12c3[nH]c4ccc(Cl)cc4c3CCN1C(=O)[C@@H](CC(=O)NCc1ccco1)C[C@@H]2C(=O)N1CCN(C(=O)c2ccco2)CC1 | inconclusive: 35.5 µM [inhibitor, single point] | 
33 | COc1ccc(/C(O)=C/C(=O)C(=O)NNC(=O)C(O)(c2ccccc2)c2ccccc2)cc1 | inconclusive: 22.4 µM [inhibitor, single point] | 
34 | Cc1ccc(S(=O)(=O)/N=C(\Sc2ccccc2)c2ccccc2)cc1 |  | inactive: -8.76%
35 | COc1ccc(C(=O)N2CCN(c3ccc(NC(=O)Cc4ccccc4)cc3)CC2)cc1 | inconclusive: 2 µM [inhibitor, full curve] | 
36 | CCOc1ccc(/C=C2\SC(=S)N(CC(=O)Nc3ccccn3)C2=O)cc1 |  | inactive: -12.8%
37 | Cc1cc2c(cc1S(=O)(=O)Nc1cc(C(F)(F)F)cc(C(F)(F)F)c1)OCC(=O)N2 | inconclusive: 11.2 µM [inhibitor, partial curve, poor fit] | 
38 | Cc1cccc(NC(=S)NCCc2ccccc2)n1 |  | inactive: -21.3%
39 | O=S(=O)(c1ccc(Cl)cc1)N1CCN(S(=O)(=O)N2CCCCCC2)CC1 |  | inactive: 16.2%
40 | COc1ccc(N(C)C(=O)Cn2cc(S(=O)(=O)N3CCN(c4ccccc4F)CC3)c3ccccc3c2=O)c(OC)c1 |  | inactive: -18.5%
41 | CC(C)N1CCN(Cc2ccc(OCc3ccccc3)cc2)CC1CCO (stereo not given) |  | inactive: -24.2%
42 | NC(=O)C1CCN(CC(=O)Nc2ccc(S(=O)(=O)N3CCOCC3)cc2)CC1 |  | inactive: 10.9%
43 | CN(C)/C=N/c1nc2ncc(-c3ccc(Cl)cc3)c(/N=C/N(C)C)n2n1 |  | inactive: 2.81%
44 | CCCNC(=O)CCn1c(-c2ccc(C)cc2)cc(C(=O)OCC)c1C |  | inactive: -23.7%
45 | COC(=O)c1ccc(=O)n(Cc2ccco2)c1 |  | inactive: 0.181%
46 | COC(=O)c1ccccc1NC(=O)n1cc(C)cn1 | inconclusive: 35.5 µM [inhibitor, single point] | 
47 | CCc1ccc(Nc2nc3ccccc3nc2NS(=O)(=O)c2ccccc2)cc1 | inconclusive: 10 µM [inhibitor, partial curve, poor fit] | 
48 | O=C(O)CCCCCCCCCC[n+]1ccccc1 | inconclusive: 12.6 µM [inhibitor, single point] | 

Row | SMILES | Potency | activity, negative = inhibition
49 | CCO[C@@H]1OC(C(=O)Nc2ccccc2)=C[C@H](c2coc3ccccc3c2=O)[C@H]1CCCO | inconclusive: 8.91 µM [inhibitor, partial curve, poor fit] | 
50 | CCCCCCCCCCCC[n+]1ccc(C)c2ccccc21 | inconclusive: 22.4 µM [inhibitor, single point] | 
51 | COc1ccccc1C(CCNCc1ccc(N(C)C)cc1)c1ccc(OC(C)C)cc1 (stereo not given) | inconclusive: 11.2 µM [inhibitor, partial curve, poor fit] | 
52 | CCOc1ccc2ncc(C(=O)c3ccc(OC)cc3)c(N3CCN(CC)CC3)c2c1 |  | inactive: 15.3%
53 | CC1/C(=N/O)CC(c2ccccc2)NC1c1ccccc1 (stereo not given) |  | inactive: -24.4%
54 | O=C1CC(Sc2nnc(-c3ccccc3O)o2)C(=O)N1c1ccccc1 (stereo not given) | inconclusive: 12.6 µM [inhibitor, partial curve] | 
55 | CC1CCN(c2ccc(-c3cccc(NS(=O)(=O)c4ccc(F)cc4F)c3)nn2)CC1 | inconclusive: 31.6 µM [inhibitor, single point] | 
56 | CCCCNc1ncnc2c1cnn2Cc1ccc(Cl)cc1 |  | inactive: -13.4%
57 | CN(c1cc2c(c3c1ccn3C)C1CCC2O1)C1CCCCC1 (stereo not given) | inconclusive: 3.98 µM [inhibitor, full curve, poor fit] | 
58 | Oc1ccc(CCc2ccccn2)cc1 |  | inactive: 7.68%
59 | NC(=O)CSc1cn(Cc2ccc(F)cc2)c2ccccc12 |  | inactive: -19.9%
60 | Cn1c(-c2csc(-c3ccccc3)n2)n[nH]c1=S |  | inactive: -12.1%
61 | COc1ccc(NC(=O)/C=C/c2ccc(F)cc2)cn1 | inconclusive: 35.5 µM [inhibitor, single point] | 
62 | COc1ccc(CCNC(=O)C(=O)NCC2OCCN2S(=O)(=O)c2ccc3c(c2)OCCO3)cc1OC (stereo not given) |  | inactive: -3.89%
63 | O=S(=O)(c1ccc(NC(=S)N/N=C/c2c3ccccc3cc3ccccc23)cc1)N1CCOCC1 | inconclusive: 11.2 µM [inhibitor, partial curve] | 
64 | CC1CCc2c(sc3ncn(CC(=O)N4CCCCC4)c(=O)c23)C1 (stereo not given) | inconclusive: 7.08 µM [inhibitor, partial curve, poor fit] | 
65 | COc1ccc(S(=O)(=O)N2CCN(c3ccccc3OC)CC2)cc1 | inactive | 
66 | CCOC(=O)C(=O)NNc1ccc(C)cc1 |  | inactive: 0.0847%
67 | COc1ccc(Br)cc1C1NC(c2ccc3c(c2)OCO3)=CC(c2ccccc2O)N1 (stereo not given) | inconclusive: 12.6 µM [inhibitor, single point] | 
68 | CCCc1nn2c(=O)cc(COC(=O)CNC(=O)COc3ccc(C)cc3)nc2s1 | inconclusive: 0.112 µM [inhibitor, full curve, poor fit] | 
69 | Cc1ccsc1C(=O)N1CCCC(C(=O)c2cc(F)ccc2F)C1 (stereo not given) | inconclusive: 0.112 µM [inhibitor, full curve, poor fit] | 
70 | FC(F)(F)c1ccc(N2CCN(c3cc(-c4ccccc4)nc4ncnn34)CC2)nc1 | inconclusive: 2.82 µM [inhibitor, full curve, poor fit] | 
